From the supplement of paper PMC6206098
± gives the uncertainty stated by the source. Shown are siRNA guide strands that differ only in the seed, positions 2 to 7.

Columns and labels:
[1] = tested on: H460; assay: cell viability relative to lipid-only control; higher = less toxic; details: concentration: 10 nM; 96 h; Homo sapiens
[2] = tested on: HeyA8; assay: as above; details: concentration: 10 nM; 96 h; Homo sapiens
[3] = tested on: M565; assay: as above; details: concentration: 10 nM; 96 h; Mus musculus
[4] = tested on: 3LL; assay: cell viability relative to siNT1 control; HeyA8 human ovarian and H460 human lung cancer; M565 mouse liver and 3LL mouse lung cancer; siNT1 is a non-toxic control siRNA; higher = less toxic; details: concentration: 10 nM; 96 h; Mus musculus;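 note: Luminescence-based viability of cells reverse transfected in 384-well plates with lipid-complexed siRNAs built on a non-toxic 19mer backbone whose passenger strand carries 2′-O-methyl groups at positions 1 and 2, triplicates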
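Throughout, for cell viability relative to lipid-only control: reverse lipid transfection in 384-well plates, in triplicate, of duplexes on a non-toxic 19mer backbone with passenger strand 2′-O-methylated at positions 1 and 2, luminescence viability read-out.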

UUGUUCGACAUGUAAACCAAA
cell viability [1]: 68.2 ± 6.2%
cell viability [2]: 71.4 ± 6.5%
cell viability [3]: 39.7 ± 4.9%
cell viability [4]: 99.1 ± 3.4%

UCUAAUAACAUGUAAACCAAA
cell viability [1]: 56.1 ± 1.9%
cell viability [2]: 82.3 ± 3.2%
cell viability [3]: 73.7 ± 5.7%
cell viability [4]: 97.3 ± 18%

UACACCCACAUGUAAACCAAA
cell viability [1]: 41 ± 6.6%
cell viability [2]: 24.2 ± 1.7%
cell viability [3]: 21.2 ± 1.9%
cell viability [4]: 40.7 ± 9.5%

UGUACCCACAUGUAAACCAAA
cell viability [1]: 24.7 ± 2.2%
cell viability [2]: 21.8 ± 2.2%
cell viability [3]: 7.81 ± 1.8%
cell viability [4]: 12.1 ± 3.8%

UGUUAGCACAUGUAAACCAAA
cell viability [1]: 28.2 ± 2.7%
cell viability [2]: 14.7 ± 0.79%
cell viability [3]: 11.7 ± 4.6%
cell viability [4]: 2.3 ± 0.59%

UAUGAGUACAUGUAAACCAAA
cell viability [1]: 70.2 ± 7.4%
cell viability [2]: 96.1 ± 3.8%
cell viability [3]: 60.4 ± 7.6%
cell viability [4]: 93.4 ± 9.5%

UUCUACGACAUGUAAACCAAA
cell viability [1]: 81.2 ± 16%
cell viability [2]: 94.8 ± 7.2%
cell viability [3]: 87.3 ± 19%
cell viability [4]: 103 ± 2.4%

UAUAGGUACAUGUAAACCAAA
cell viability [1]: 60.9 ± 4.8%
cell viability [2]: 92.2 ± 6.9%
cell viability [3]: 73.8 ± 4.8%
cell viability [4]: 54.8 ± 5.2%

UGGUAGCACAUGUAAACCAAA
cell viability [1]: 14.7 ± 0.77%
cell viability [2]: 25.2 ± 3.5%
cell viability [3]: 17.8 ± 2.7%
cell viability [4]: 26.1 ± 1.5%

UCCCGACACAUGUAAACCAAA
cell viability [1]: 72.3 ± 6.1%
cell viability [2]: 68.3 ± 7.8%
cell viability [3]: 59 ± 16%
cell viability [4]: 56.5 ± 12%

UCGCUCAACAUGUAAACCAAA
cell viability [1]: 65.6 ± 13%
cell viability [2]: 79.8 ± 5.1%
cell viability [3]: 87.9 ± 4.9%
cell viability [4]: 96.7 ± 13%

UCUCGAUACAUGUAAACCAAA
cell viability [1]: 42.6 ± 4.2%
cell viability [2]: 90.3 ± 5.8%
cell viability [3]: 61.4 ± 8.8%
cell viability [4]: 88.8 ± 16%

UCGUCCGACAUGUAAACCAAA
cell viability [1]: 69.2 ± 13%
cell viability [2]: 53.3 ± 7.2%
cell viability [3]: 56.5 ± 8.8%
cell viability [4]: 60.4 ± 6.4%

UGCGGCGACAUGUAAACCAAA
cell viability [1]: 17.1 ± 1.6%
cell viability [2]: 4.4 ± 0.23%
cell viability [3]: 8.71 ± 2.1%
cell viability [4]: 11.6 ± 3.6%

UCCCUAAACAUGUAAACCAAA
cell viability [1]: 52 ± 9.2%
cell viability [2]: 89.7 ± 6.3%
cell viability [3]: 75.2 ± 13%
cell viability [4]: 109 ± 27%

UCACCGAACAUGUAAACCAAA
cell viability [1]: 56.1 ± 8.2%
cell viability [2]: 83.6 ± 9.4%
cell viability [3]: 58.6 ± 10%
cell viability [4]: 93.6 ± 12%

UGACCUGACAUGUAAACCAAA
cell viability [1]: 50 ± 14%
cell viability [2]: 61 ± 9.3%
cell viability [3]: 41 ± 8.3%
cell viability [4]: 47.7 ± 11%

UAUCCGAACAUGUAAACCAAA
cell viability [1]: 100 ± 7.1%
cell viability [2]: 97 ± 3.2%
cell viability [3]: 97.2 ± 15%
cell viability [4]: 105 ± 3.9%

UUACCGGACAUGUAAACCAAA
cell viability [1]: 73.6 ± 14%
cell viability [2]: 89.9 ± 3.5%
cell viability [3]: 74.1 ± 16%
cell viability [4]: 91.1 ± 14%

UACGGAAACAUGUAAACCAAA
cell viability [1]: 96.2 ± 29%
cell viability [2]: 92 ± 5.2%
cell viability [3]: 84.9 ± 14%
cell viability [4]: 91.2 ± 12%

UUCUUUAACAUGUAAACCAAA
cell viability [1]: 110 ± 11%
cell viability [2]: 99 ± 15%
cell viability [3]: 112 ± 8.2%
cell viability [4]: 118 ± 10%

UUCUGAGACAUGUAAACCAAA
cell viability [1]: 60.8 ± 4.4%
cell viability [2]: 96 ± 3.2%
cell viability [3]: 82.2 ± 5%
cell viability [4]: 72.5 ± 6.6%

UGGCGCAACAUGUAAACCAAA
cell viability [1]: 37.5 ± 2.9%
cell viability [2]: 9.72 ± 2.5%
cell viability [3]: 36.6 ± 7.1%
cell viability [4]: 59.4 ± 8.3%

UAUGUUUACAUGUAAACCAAA
cell viability [1]: 52.1 ± 8.8%
cell viability [2]: 72.6 ± 3.9%
cell viability [3]: 91.4 ± 8.8%
cell viability [4]: 64.9 ± 11%

UGUCAGAACAUGUAAACCAAA
cell viability [1]: 49.6 ± 5.2%
cell viability [2]: 52.7 ± 4.8%
cell viability [3]: 76.6 ± 5.5%
cell viability [4]: 72.4 ± 15%

UUUUUUAACAUGUAAACCAAA
cell viability [1]: 62.3 ± 4.4%
cell viability [2]: 88.9 ± 5.3%
cell viability [3]: 101 ± 8.3%
cell viability [4]: 87.9 ± 6%

UGUGAUUACAUGUAAACCAAA
cell viability [1]: 43.8 ± 11%
cell viability [2]: 53.7 ± 2.5%
cell viability [3]: 19.2 ± 3.1%
cell viability [4]: 69 ± 7%

UCAUCAGACAUGUAAACCAAA
cell viability [1]: 59.8 ± 6.7%
cell viability [2]: 24.8 ± 1.1%
cell viability [3]: 53.1 ± 4.7%
cell viability [4]: 84.7 ± 16%

UAAAUGGACAUGUAAACCAAA
cell viability [1]: 66.4 ± 4.1%
cell viability [2]: 88.9 ± 4.7%
cell viability [3]: 54.7 ± 6.5%
cell viability [4]: 85.6 ± 6.2%

UACUAUAACAUGUAAACCAAA
cell viability [1]: 68 ± 2.5%
cell viability [2]: 95.2 ± 5.6%
cell viability [3]: 82.8 ± 6%
cell viability [4]: 97 ± 9.4%

UACGCUGACAUGUAAACCAAA
cell viability [1]: 69.8 ± 1.9%
cell viability [2]: 89.5 ± 9.6%
cell viability [3]: 74.9 ± 3.7%
cell viability [4]: 91.7 ± 3.3%

UGACGGAACAUGUAAACCAAA
cell viability [1]: 48.1 ± 5.2%
cell viability [2]: 71.8 ± 3.4%
cell viability [3]: 46.5 ± 7.3%
cell viability [4]: 79.4 ± 1.3%

UCUUAUUACAUGUAAACCAAA
cell viability [1]: 78.7 ± 7%
cell viability [2]: 85.1 ± 9.6%
cell viability [3]: 77.2 ± 11%
cell viability [4]: 89 ± 18%

UUCAUGAACAUGUAAACCAAA
cell viability [1]: 45.7 ± 6%
cell viability [2]: 87.5 ± 12%
cell viability [3]: 100 ± 14%
cell viability [4]: 79.5 ± 21%

UGCUCAGACAUGUAAACCAAA
cell viability [1]: 86.2 ± 16%
cell viability [2]: 66.8 ± 5.4%
cell viability [3]: 87.2 ± 7.2%
cell viability [4]: 73.5 ± 11%

UAGAAUCACAUGUAAACCAAA
cell viability [1]: 76.8 ± 9.1%
cell viability [2]: 55.5 ± 4.8%
cell viability [3]: 42.9 ± 1.7%
cell viability [4]: 69 ± 6.6%

UUCAAGAACAUGUAAACCAAA
cell viability [1]: 65.5 ± 2.5%
cell viability [2]: 84.6 ± 10%
cell viability [3]: 35.5 ± 2%
cell viability [4]: 76.7 ± 19%

UUUGAGUACAUGUAAACCAAA
cell viability [1]: 66.4 ± 3.2%
cell viability [2]: 85.6 ± 2.5%
cell viability [3]: 57.2 ± 4.2%
cell viability [4]: 54.7 ± 8.9%

UCUACUAACAUGUAAACCAAA
cell viability [1]: 86.8 ± 21%
cell viability [2]: 86.5 ± 9.5%
cell viability [3]: 61.6 ± 8.8%
cell viability [4]: 98.9 ± 18%

UUGCGUGACAUGUAAACCAAA
cell viability [1]: 71.9 ± 4.8%
cell viability [2]: 81.1 ± 9.2%
cell viability [3]: 51 ± 2.4%
cell viability [4]: 64.1 ± 4.5%

UCGGUUUACAUGUAAACCAAA
cell viability [1]: 63.1 ± 3.8%
cell viability [2]: 83.8 ± 1.4%
cell viability [3]: 76 ± 4.1%
cell viability [4]: 94.9 ± 13%

UCGUCACACAUGUAAACCAAA
cell viability [1]: 65.9 ± 7.3%
cell viability [2]: 57.1 ± 5.7%
cell viability [3]: 39.7 ± 9.8%
cell viability [4]: 70 ± 10%

UCCUUUAACAUGUAAACCAAA
cell viability [1]: 96.9 ± 4.5%
cell viability [2]: 80 ± 3.6%
cell viability [3]: 94.7 ± 12%
cell viability [4]: 97.6 ± 21%

UACGCGGACAUGUAAACCAAA
cell viability [1]: 66.7 ± 9.4%
cell viability [2]: 84.8 ± 5.6%
cell viability [3]: 73.1 ± 8.6%
cell viability [4]: 82.4 ± 4.6%

UUAUCCGACAUGUAAACCAAA
cell viability [1]: 79.3 ± 5.9%
cell viability [2]: 79.1 ± 5.6%
cell viability [3]: 70.3 ± 14%
cell viability [4]: 65.8 ± 3.5%

UCCACGUACAUGUAAACCAAA
cell viability [1]: 93.6 ± 16%
cell viability [2]: 60.3 ± 1.7%
cell viability [3]: 27.9 ± 6.8%
cell viability [4]: 48.7 ± 7.6%

UGACCAAACAUGUAAACCAAA
cell viability [1]: 67.3 ± 4.5%
cell viability [2]: 57.4 ± 14%
cell viability [3]: 25.8 ± 3%
cell viability [4]: 70.5 ± 10%

UGGGGUGACAUGUAAACCAAA
cell viability [1]: 11.9 ± 2%
cell viability [2]: 2.78 ± 0.19%
cell viability [3]: 18.7 ± 7.9%
cell viability [4]: 7.74 ± 1%

UCCCAGCACAUGUAAACCAAA
cell viability [1]: 41.3 ± 4.1%
cell viability [2]: 50.8 ± 7.2%
cell viability [3]: 51 ± 5.6%
cell viability [4]: 48.1 ± 12%

UGCUUUAACAUGUAAACCAAA
cell viability [1]: 85.8 ± 20%
cell viability [2]: 65.7 ± 4.6%
cell viability [3]: 62.5 ± 8.4%
cell viability [4]: 77.4 ± 15%

UUCACCGACAUGUAAACCAAA
cell viability [1]: 57.6 ± 8.5%
cell viability [2]: 85.2 ± 6%
cell viability [3]: 91.4 ± 13%
cell viability [4]: 101 ± 19%

UCCUUACACAUGUAAACCAAA
cell viability [1]: 79.7 ± 7.3%
cell viability [2]: 53.1 ± 3.2%
cell viability [3]: 93.9 ± 10%
cell viability [4]: 105 ± 20%

UCAGACCACAUGUAAACCAAA
cell viability [1]: 31.2 ± 5.5%
cell viability [2]: 63.1 ± 1.6%
cell viability [3]: 31.9 ± 7.7%
cell viability [4]: 85.7 ± 22%

UUACCACACAUGUAAACCAAA
cell viability [1]: 35.6 ± 3.2%
cell viability [2]: 63.5 ± 2.2%
cell viability [3]: 41.5 ± 8.4%
cell viability [4]: 48.3 ± 5%

UCUUGAUACAUGUAAACCAAA
cell viability [1]: 64.1 ± 3.3%
cell viability [2]: 80.5 ± 0.96%
cell viability [3]: 64.4 ± 13%
cell viability [4]: 91.8 ± 15%

UCCCGCGACAUGUAAACCAAA
cell viability [1]: 84.9 ± 16%
cell viability [2]: 82.3 ± 5.1%
cell viability [3]: 74.3 ± 19%
cell viability [4]: 102 ± 15%

UCUUUUAACAUGUAAACCAAA
cell viability [1]: 80.5 ± 9.7%
cell viability [2]: 85.4 ± 11%
cell viability [3]: 75.9 ± 12%
cell viability [4]: 91 ± 13%

UUUUCUAACAUGUAAACCAAA
cell viability [1]: 69.1 ± 4.3%
cell viability [2]: 95.8 ± 7.5%
cell viability [3]: 92 ± 4.1%
cell viability [4]: 89.8 ± 1.1%

UCUACUGACAUGUAAACCAAA
cell viability [1]: 73.5 ± 10%
cell viability [2]: 86.6 ± 4.8%
cell viability [3]: 69.4 ± 13%
cell viability [4]: 95.7 ± 17%
